# Measured values as given in the supplement of paper PMC8728848.
# This is one part of the list.
# B1: SP16664D-bth-476-27-476 (Bacteroides thetaiotaomicron) (protein)
# chain: DDLEVGKNIDESAYSGIYENNAYLRDGKSNLVSKVVELHGETYATTVKMGLSKTPNTATSAKVKIDAAYLETYNKAHNTDFALYPQDLVTFANEGILTVNANTKSAEVEMTIRAGEGLQEDKTYAIPVAISDQSSDITIKDEDAKHCIYLVKDMRNAGDAYKGEGVMQGYLFFEVNDVNPLNTLSFQLENGKLLWDVVVLFAANINYDAEAGRPRVQCNPNVQYLLDNNETLLQPLRRRGVKVLLGLLGNHDITGLAQLSEQGAKDFAREVAQYCKAYNLDGVNYDDEYSNSPDLSNPSLTNPSTAAAARLCYETKQAMPDKLVTVFDWGQMYGVATVDGVDAKEWIDIVVANYGSAAYPIGQMTKKQCSGISMEFNLGGGGSLSASKAQSMIDGGYGWFMGFAPSPAKYGSVFSRLQGGGEVLYGSNVAAPTIFYKKNDPTPYKYPDDL
# Tests used:
# Assay in all cases: glycan array binding signal (z-score within array); higher = stronger binding
# Details in all cases: glycan notation: IUPAC condensed, linker removed
# Neu5Ac(a2-3)Gal(b1-4)Glc = target: Neu5Ac(a2-3)Gal(b1-4)Glc
# In short: (§1)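 Glycan array data were curated from 3228 arrays in the Consortium for Functional Glycomics database and kept only where the protein sequence was available. Glycan names were converted to IUPAC-condensed notation, and columns mapping to the same glycan were averaged. The binding signal is a within-array Z-score, averaged across arrays of the same protein sequence at different concentrations or buffers and across linkers. Negative Z-scores can be read as non-binding.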
# [1] = target: Neu5Ac(a2-3)Gal(b1-4)GlcNAc
# In short: as §1
# [2] = target: Neu5Ac(a2-3)Gal(b1-4)GlcNAc(b1-2)Man
# In short: as §1
# [3] = target: Neu5Ac(a2-3)Gal(b1-4)GlcNAc(b1-2)Man(a1-3)[GlcNAc(b1-4)][Neu5Ac(a2-3)Gal(b1-4)GlcNAc(b1-2)Man(a1-6)]Man(b1-4)GlcNAc(b1-4)GlcNAc
# In short: as §1
# [4] = target: Neu5Ac(a2-3)Gal(b1-4)GlcNAc(b1-2)Man(a1-3)[Neu5Ac(a2-3)Gal(b1-4)GlcNAc(b1-2)Man(a1-6)]Man(b1-4)GlcNAc(b1-4)GlcNAc
# In short: as §1
# [5] = target: Neu5Ac(a2-3)Gal(b1-4)GlcNAc(b1-2)Man(a1-3)[Neu5Ac(a2-3)Gal(b1-4)GlcNAc(b1-2)Man(a1-6)]Man(b1-4)GlcNAc(b1-4)[Fuc(a1-6)]GlcNAc
# In short: as §1
# [6] = target: Neu5Ac(a2-3)Gal(b1-4)GlcNAc(b1-2)Man(a1-3)[Neu5Ac(a2-6)Gal(b1-4)GlcNAc(b1-2)Man(a1-6)]Man(b1-4)GlcNAc(b1-4)GlcNAc
# In short: as §1
# [7] = target: Neu5Ac(a2-3)Gal(b1-4)GlcNAc(b1-2)[Neu5Ac(a2-3)Gal(b1-4)GlcNAc(b1-4)]Man(a1-3)[GlcNAc(b1-4)][Neu5Ac(a2-3)Gal(b1-4)GlcNAc(b1-2)[Neu5Ac(a2-3)Gal(b1-4)GlcNAc(b1-6)]Man(a1-6)]Man(b1-4)GlcNAc(b1-4)GlcNAc
# In short: as §1
# [8] = target: Neu5Ac(a2-3)Gal(b1-4)GlcNAc(b1-2)[Neu5Ac(a2-3)Gal(b1-4)GlcNAc(b1-4)]Man(a1-3)[GlcNAc(b1-4)][Neu5Ac(a2-3)Gal(b1-4)GlcNAc(b1-4)Man(a1-6)]Man(b1-4)GlcNAc(b1-4)GlcNAc
# In short: as §1
# [9] = target: Neu5Ac(a2-3)Gal(b1-4)GlcNAc(b1-2)[Neu5Ac(a2-3)Gal(b1-4)GlcNAc(b1-6)]Man(a1-6)[Neu5Ac(a2-3)Gal(b1-4)GlcNAc(b1-2)Man(a1-3)]Man(b1-4)GlcNAc(b1-4)GlcNAc
# In short: as §1
# [10] = target: Neu5Ac(a2-3)Gal(b1-4)GlcNAc(b1-2)[Neu5Ac(a2-3)Gal(b1-4)GlcNAc(b1-6)]Man(a1-6)[Neu5Ac(a2-3)Gal(b1-4)GlcNAc(b1-2)Man(a1-3)][GlcNAc(b1-4)]Man(b1-4)GlcNAc(b1-4)GlcNAc
# In short: as §1
# [11] = target: Neu5Ac(a2-3)Gal(b1-4)GlcNAc(b1-3)Gal
# In short: as §1
# [12] = target: Neu5Ac(a2-3)Gal(b1-4)GlcNAc(b1-3)Gal(b1-3)GlcNAc
# In short: as §1
# [13] = target: Neu5Ac(a2-3)Gal(b1-4)GlcNAc(b1-3)Gal(b1-4)GlcNAc
# In short: as §1
# [14] = target: Neu5Ac(a2-3)Gal(b1-4)GlcNAc(b1-3)Gal(b1-4)GlcNAc(b1-2)Man(a1-3)[Neu5Ac(a2-3)Gal(b1-4)GlcNAc(b1-3)Gal(b1-4)GlcNAc(b1-2)Man(a1-6)]Man(b1-4)GlcNAc(b1-4)GlcNAc
# In short: as §1
# [15] = target: Neu5Ac(a2-3)Gal(b1-4)GlcNAc(b1-3)Gal(b1-4)GlcNAc(b1-3)Gal(b1-4)GlcNAc
# In short: as §1
# [16] = target: Neu5Ac(a2-3)Gal(b1-4)GlcNAc(b1-3)Gal(b1-4)GlcNAc(b1-3)Gal(b1-4)GlcNAc(b1-2)Man(a1-3)[Neu5Ac(a2-3)Gal(b1-4)GlcNAc(b1-3)Gal(b1-4)GlcNAc(b1-3)Gal(b1-4)GlcNAc(b1-2)Man(a1-6)]GalNAc
# In short: as §1
# [17] = target: Neu5Ac(a2-3)Gal(b1-4)GlcNAc(b1-3)Gal(b1-4)GlcNAc(b1-3)GalNAc
# In short: as §1
# [18] = target: Neu5Ac(a2-3)Gal(b1-4)GlcNAc(b1-3)Gal(b1-4)GlcNAc(b1-3)[Neu5Ac(a2-3)Gal(b1-4)GlcNAc(b1-3)Gal(b1-4)GlcNAc(b1-6)]GalNAc
# In short: as §1
# [19] = target: Neu5Ac(a2-3)Gal(b1-4)GlcNAc(b1-3)Gal(b1-4)GlcNAc(b1-6)[Gal(b1-3)]GalNAc
# In short: as §1
# [20] = target: Neu5Ac(a2-3)Gal(b1-4)GlcNAc(b1-3)Gal(b1-4)[Fuc(a1-3)]GlcNAc
# In short: as §1
# [21] = target: Neu5Ac(a2-3)Gal(b1-4)GlcNAc(b1-3)GalNAc
# In short: as §1
# [22] = target: Neu5Ac(a2-3)Gal(b1-4)GlcNAc(b1-3)[Neu5Ac(a2-3)Gal(b1-4)GlcNAc(b1-6)]GalNAc
# In short: as §1
# [23] = target: Neu5Ac(a2-3)Gal(b1-4)GlcNAc(b1-6)GalNAc
# In short: as §1
# [24] = target: Neu5Ac(a2-3)Gal(b1-4)GlcNAc(b1-6)[Gal(b1-3)]GalNAc
# In short: as §1
# [25] = target: Neu5Ac(a2-3)Gal(b1-4)GlcNAc(b1-6)[Neu5Ac(a2-3)Gal(b1-3)]GalNAc
# In short: as §1
# [26] = target: Neu5Ac(a2-3)Gal(b1-4)GlcNAc6S
# In short: as §1
# [27] = target: Neu5Ac(a2-3)Gal(b1-4)[Fuc(a1-3)]GlcNAc
# In short: as §1
# [28] = target: Neu5Ac(a2-3)Gal(b1-4)[Fuc(a1-3)]GlcNAc(b1-2)Man
# In short: as §1
# [29] = target: Neu5Ac(a2-3)Gal(b1-4)[Fuc(a1-3)]GlcNAc(b1-3)Gal
# In short: as §1
# [30] = target: Neu5Ac(a2-3)Gal(b1-4)[Fuc(a1-3)]GlcNAc(b1-3)Gal(b1-4)GlcNAc
# In short: as §1
# [31] = target: Neu5Ac(a2-3)Gal(b1-4)[Fuc(a1-3)]GlcNAc(b1-3)Gal(b1-4)[Fuc(a1-3)]GlcNAc(b1-3)Gal(b1-4)[Fuc(a1-3)]GlcNAc
# In short: as §1
# [32] = target: Neu5Ac(a2-3)Gal(b1-4)[Fuc(a1-3)]GlcNAc(b1-3)GalNAc
# In short: as §1
# [33] = target: Neu5Ac(a2-3)Gal(b1-4)[Fuc(a1-3)]GlcNAc(b1-6)[Gal(b1-3)]GalNAc
# In short: as §1
# [34] = target: Neu5Ac(a2-3)Gal(b1-4)[Fuc(a1-3)]GlcNAc(b1-6)[Neu5Ac(a2-3)Gal(b1-3)]GalNAc
# In short: as §1
# [35] = target: Neu5Ac(a2-3)Gal(b1-4)[Fuc(a1-3)]GlcNAc6S
# In short: as §1
# [36] = target: Neu5Ac(a2-3)Gal6S(b1-4)GlcNAc
# In short: as §1
# [37] = target: Neu5Ac(a2-3)Gal6S(b1-4)[Fuc(a1-3)]GlcNAc
# In short: as §1
binder,measurement,setting,value
B1,glycan array binding signal (z-score),Neu5Ac(a2-3)Gal(b1-4)Glc,-0.011
same,glycan array binding signal (z-score),[1],-0.347
same,glycan array binding signal (z-score),[2],-0.18
same,glycan array binding signal (z-score),[3],-0.407
same,glycan array binding signal (z-score),[4],-0.12
same,glycan array binding signal (z-score),[5],0.029
same,glycan array binding signal (z-score),[6],-0.195
same,glycan array binding signal (z-score),[7],-0.043
same,glycan array binding signal (z-score),[8],-0.029
same,glycan array binding signal (z-score),[9],-0.218
same,glycan array binding signal (z-score),[10],0.105
same,glycan array binding signal (z-score),[11],-0.117
same,glycan array binding signal (z-score),[12],-0.23
same,glycan array binding signal (z-score),[13],-0.351
same,glycan array binding signal (z-score),[14],-0.218
same,glycan array binding signal (z-score),[15],-0.287
same,glycan array binding signal (z-score),[16],0.099
same,glycan array binding signal (z-score),[17],-0.145
same,glycan array binding signal (z-score),[18],-0.185
same,glycan array binding signal (z-score),[19],-0.314
same,glycan array binding signal (z-score),[20],0.058
same,glycan array binding signal (z-score),[21],-0.227
same,glycan array binding signal (z-score),[22],-0.389
same,glycan array binding signal (z-score),[23],-0.274
same,glycan array binding signal (z-score),[24],-0.001
same,glycan array binding signal (z-score),[25],-0.289
same,glycan array binding signal (z-score),[26],-0.243
same,glycan array binding signal (z-score),[27],-0.111
same,glycan array binding signal (z-score),[28],-0.056
same,glycan array binding signal (z-score),[29],-0.222
same,glycan array binding signal (z-score),[30],-0.046
same,glycan array binding signal (z-score),[31],-0.263
same,glycan array binding signal (z-score),[32],0.765
same,glycan array binding signal (z-score),[33],9.86
same,glycan array binding signal (z-score),[34],0.016
same,glycan array binding signal (z-score),[35],0.013
same,glycan array binding signal (z-score),[36],-0.22
same,glycan array binding signal (z-score),[37],-0.246
